Experimental data from PubChem BioAssay AID624296 (National Center for Advancing Translational Sciences (NCATS), 2012).
Among all 350,000 compounds or so, about 9,900 (2.8%) were called active. This list was built around the results that the source calls inconclusive (neither active nor inactive); the mix of calls is not that of the screen. Calls come from the whole dose curve; as a rule, active = well fitted activation curve with a large enough effect; inconclusive = small, poorly fitted or top-dose-only effect; inactive = no such curve, though single readings can be large or run the other way. Potencies of inconclusive entries are left out as doubtful fits.

assay: A quantitative high throughput screen for small molecules that induce DNA re-replication in MCF 10a normal breast cells.; note: nearly all actives have a fitted effect of over 50% in size; conditions: MCF 10A DNA re-replication, Hoechst nuclear intensity, 48 h; series mostly up to 46.1 µM
Potency is the fitted concentration of half-maximal effect; tags give direction and shape of the fitted curve.

Compound	Potency
Cc1ccc2[nH]c3c(=O)n(CC(=O)NCCCN4CCN(c5ccc(F)cc5)CC4)ncc3c2c1	inconclusive [activator, partial curve, poor fit]
O=C(Cc1cccs1)Nc1nnc(C2CC2)s1	inconclusive [activator, partial curve, poor fit]
O=C(c1cc(-c2cccc(Cl)c2)on1)N1CCCCCC1	inconclusive [activator, partial curve, poor fit]
O=c1[nH]c(Cc2ccccc2Cl)nc2ccccc12	inconclusive [activator, partial curve, poor fit]
CCOc1ccc(Nc2nc(N)nc(CCl)n2)cc1	inconclusive [activator, single point]
CCc1nnc(NC(=O)c2ccc(S(=O)(=O)N3CCCCC3)cc2)s1	inconclusive [activator, partial curve, poor fit]
CCC(NC(=O)Cc1c(C)c2ccc(OC)c(C)c2oc1=O)C(=O)NC(Cc1ccc(Cl)cc1)C(=O)O (stereo not drawn)	inconclusive [activator, single point]
C=CCN1C(=O)C(CC(=O)NCC)SC1=Nc1ccccc1CC (stereo not drawn)	inactive
Cc1onc(-c2ccccc2)c1C(=O)NNC(=S)NC(=O)c1ccc(Cl)cc1Cl	inconclusive [activator, partial curve, poor fit]
Cc1onc(-c2ccccc2)c1C(=O)N1CCOC12CCN(c1cccc(F)n1)CC2	inconclusive [activator, single point]
O=C(Cn1nc(C(=O)O)c2ccccc2c1=O)NC12CC3CC(CC(C3)C1)C2	inconclusive [activator, partial curve, poor fit]
O=C(O)COc1ccc2oc3c(c2c1)CCCC3	active: 2.06 µM
CCOc1ccc(-c2c(C)sc3nc[nH]c(=O)c23)cc1	inconclusive [activator, single point]
CCN(CC)C(=O)OCCc1cc2ccccc2c(=O)o1	inconclusive [activator, full curve, poor fit]
Cc1nnc(SCC(=O)Nc2cccc([N+](=O)[O-])c2)n1CC1CCCO1 (stereo not drawn)	inactive
O=C(COc1ccc([N+](=O)[O-])cc1)Nn1cnnc1	inactive
Cc1cnc(C)c(N(C)NC(=S)Nc2ccccc2)n1	inconclusive [activator, single point]
Cc1nc(-c2ccc(Cl)cc2)sc1C(=O)CBr	inconclusive [activator, full curve, poor fit]
